ChEMBL document CHEMBL4888484, “Replenishing the malaria drug discovery pipeline: Screening and hit evaluation of the MMV Hit Generation Library 1 (HGL1) against asexual blood stage Plasmodium falciparum ,using a nano luciferase reporter read-out” (2022)
Out of some 150,000 compounds screened, about 540 (0.36%) showed an effect of 50% or more. The list shows a part of the results.

Each compound was assayed on Plasmodium falciparum (assay: Primary screen in NF54 nanoGlo assay, in single point, at 2uM, 72h; a lower Z score goes with more inhibition). Details: timepoint 72 hour.
Assay type: functional, Erythrocyte

Row | Structure (SMILES) | % Inhibition [%] | Z score
1 | Cc1nnc(CN[C@H](c2ccccc2)C2(CO)CCC2)o1 | 21 | -2.61
2 | Cc1cc(C)n([C@H]2[C@@H]3OC[C@@H](O3)[C@@H](NC(=O)Nc3cccc(F)c3)[C@@H]2O)n1 | 2 | -0.33
3 | N[C@@H](CO)c1cccc(Br)c1 | 30 | -0.35
4 | Cc1nccn1CCCCNC(=O)N1CCC2CCCCC21 (stereo not given) | -2 | 0.29
5 | CCOc1cc(CN2CCC(O)(c3ccc4oc(C(=O)NCC(C)C)cc4c3)CC2)ccc1OC | 1 | -0.08
6 | COc1ccc(NC(=O)CCn2c(=O)[nH]c3cc(S(=O)(=O)N4CCCCC4)ccc32)cc1 | -16 | 2.09
7 | C[C@@H](CC1CCOCC1)NCc1ccccc1 | -11 | 1.16
8 | CC(C)Oc1ncccc1NCc1ccc2cn[nH]c2c1 | -5 | 0.42
9 | O=C(c1n[nH]c2ccccc12)N1CCC(c2nc3ccccc3s2)CC1 | -9 | 1.17
10 | CC(C)(C)c1ncc(CN2CCC3(CCC3)S(=O)(=O)CC2)cn1 | -8 | 1.36
11 | COCCN1C[C@@H](CNc2nccnc2N(C)C)CC1=O | -3 | 0.34
12 | Brc1cc2c(cc1Cn1nnc(-c3ccncc3)n1)OCO2 | 13 | -1.6
13 | CCc1noc(CN2C(C)CC(C(=O)NC(C)CC)C3CCCCC32)n1 (stereo not given) | -6 | 1.05
14 | Cc1noc(C)c1CN1CC[C@H](NC(=O)c2ccc[nH]2)[C@@H](O)C1 | -16 | 2.71
15 | c1ccc(CN2C[C@H]3CC[C@@H](C2)N(Cc2ccnc4ccccc24)C3)nc1 | -13 | 2.43
16 | Cn1nc2c(c1C(=O)NCC[C@H]1CCC(C)(C)CO1)CCC2 | -10 | 1.21
17 | COc1ncc(CN2CCC(OCc3ccccn3)CC2)cn1 | -12 | 1.49
18 | COc1cc(CN2CCCC2(C)C)ccc1OC[C@@H](O)CN1CCCCCC1 | -5 | 0.99
19 | Cc1c[nH]c(CN(C)C(=O)c2ccc3[nH]ccc3c2)n1 | -7 | 1.15
20 | CN(Cc1nc(-c2ccccn2)no1)Cc1cnc(N(C)C)s1 | -6 | 0.84
21 | Cc1cc(N2CC[C@H](C(N)=O)C2)c2cc(OC(F)F)ccc2n1 | -6 | 1.13
22 | CCOC(=O)c1cc(S(=O)(=O)N(C)CC(=O)Nc2cccc3c2CCCC3)cn1C | -13 | 2.52

Row | Structure (SMILES) | % Inhibition [%] | Z score
23 | O=S(=O)(NC[C@@H](c1ccc(Cl)cc1)N1CCCCC1)C1CC1 | -13 | 2.27
24 | CC1CC(c2ccccc2)n2ncnc2N1C(=O)c1ccc(Cl)cc1 (stereo not given) | 31 | -3.46
25 | O=C(c1ccc2ncsc2c1)N1CCn2nc3c(c2C1)CCC3 | 12 | -1.47
26 | Cc1ccc2cccc(S(=O)(=O)NCCCn3cccn3)c2n1 | -3 | 0.5
27 | CC(C)Oc1ccc2nnc(CCC(=O)Nc3ccccn3)n2n1 | -2 | 0.22
28 | COc1cc(C(=O)NC[C@@H](c2ccc(N(C)C)cc2)N2CCCC2)cc(OC)c1OC | 3 | -0.31
29 | CCc1nnc(CN2C(=O)N[C@@](C)(c3ccc(Cl)s3)C2=O)o1 | 2 | -0.34
30 | CCN(C(=O)c1ccc(-c2ccc(C(=O)NC)o2)cc1)[C@H]1COC[C@@H]1O | -19 | 1.79
31 | CCOc1cccc(CNC(=O)C(C)(C)C)c1 | -11 | 0.98
32 | Cc1ccc(OCc2nc(C)c(C(=O)Nc3nccs3)s2)cc1C | 0 | -0.06
33 | Cc1nn(-c2ccccc2)c2c1C(=O)NC(=O)C(C)(C)C2 | -4 | 0.54
34 | CCN(CC(C)(C)C)C(=O)c1c(C)cccc1OC | 4 | -0.61
35 | COC[C@@H]1[C@H](NC(=O)c2cc3ccccc3[nH]2)[C@H]2CCO[C@H]21 | -13 | 2.29
36 | Cc1ncccc1CN[C@@H](CN1CCCC1=O)c1cccc(C(F)(F)F)c1 | -14 | 1.77
37 | CC1CC(c2cccnc2)N(C(=O)NCc2ccccc2)C1 (stereo not given) | -4 | 0.64
38 | Cc1nc([C@H](C)NC(=O)c2cnc(COc3ccccc3)nc2O)cs1 | 1 | -0.11
39 | O=C(NCc1cnc(C(F)(F)F)nc1)N[C@@H]1CCc2cc(Cl)ccc21 | -8 | 1.2
40 | OCCn1cc(Nc2ncnc3sccc23)cn1 | 5 | -0.96
41 | CN1C(=O)CC[C@H]1C(=O)Nc1ccc(-c2cn3c(n2)CCCC3)cc1 | -18 | 2.62
42 | CCn1nc(C)c(-c2cc(C(=O)N3C[C@H]4CN(C(=O)C(C)C)C[C@@]4(CO)C3)no2)c1C | -11 | 1.53
43 | Cc1nc(CN[C@H]2CCCN(C(=O)C(C)C)C2)n(C)c1C | -22 | 1.93
44 | Cn1nc(C2CC2)nc1CN1CCO[C@H](c2cccs2)C1 | -9 | 1.4

Row | Structure (SMILES) | % Inhibition [%] | Z score
45 | O=C(NCc1cccs1)C1CCN(Cc2ccncc2)CC1 | 10 | -0.85
46 | Cc1n[nH]c(C)c1CNC(=O)[C@H]1CC(=O)N(c2ccccc2Br)C1 | -3 | 0.7
47 | COCCCn1c(C)cc(C(=O)N2CC[C@H]3C(=O)NCCN3CC2)c1C | 0 | 0.04
48 | Cc1cc(C)n(CCN(C)c2nnc(C)s2)n1 | -5 | 0.8
49 | c1ccc(-c2nnc(NCCN3CCOCC3)o2)cc1 | -5 | 0.66
50 | Cc1ccc(C(=O)N2C[C@@H]3C[C@H](NS(=O)(=O)c4cccnc4)[C@H]2C3)cc1F | 34 | -3.8
51 | CCOc1ccc(CCNC(=O)c2nc(-c3ccc4c(c3)OCC(=O)N4C)no2)cc1OCC | 11 | -1.31
52 | CCC(C)S(=O)(=O)NC(=O)C1CC1(Cl)Cl (stereo not given) | -15 | 1.97
53 | C[C@H](O)Cc1cn(C2CCN(C(=O)NCc3ccco3)CC2)nn1 | 6 | -0.8
54 | CC(C)N1CCC(CN2CCO[C@H](c3ccc(Cl)cc3)C2)CC1 | -10 | 1.35
55 | Cc1noc(C)c1CN1CC[C@H](NC(=O)Cc2cccnc2)[C@@H](O)C1 | 2 | -0.26
56 | CCc1nsc(NCc2nc(C(F)(F)F)no2)n1 | -4 | 0.41
57 | COCC1(C(=O)NS(=O)(=O)c2c(F)cc(OC)cc2F)CCC1 | -11 | 1.96
58 | O=S(=O)(c1ccc(F)cc1F)N1CCN(c2nccc(-c3ccc(Oc4ccccc4)cc3)n2)CC1 | 0 | -0.04
59 | Cc1cccc(N2CCN(C(=O)C3CCN(S(=O)(=O)Cc4ccc(Cl)cc4)CC3)CC2)c1C | 1 | -0.12
60 | C[C@@H](Cn1nnnc1N1CCCC1)Oc1ccccc1F | -2 | 0.2
61 | CC(C)c1ncc(CN(C)C(=O)[C@@H]2C[C@H]3CC[C@@H]2O3)cn1 | 16 | -1.84
62 | CC(=O)N[C@H]1CCN(c2cc(C)ncn2)C1 | 6 | -0.74
63 | FC(F)(F)c1nnc2ccc(NC3CCN(c4ncnc5c4CCCC5)CC3)nn12 | -8 | 1.7
64 | CO[C@@H](CNC(=O)N1CCNC1=O)c1ccc(Cl)s1 | -19 | 2.37
65 | Cc1nc(C)c(C(=O)N2CCCCCCNC(=O)CC2)s1 | -12 | 1.52
66 | CCOc1ccccc1CN1CCN(C(=O)c2ccnc3c2ncn3C)[C@@H](C)C1 | -1 | 0.18

Row | Structure (SMILES) | % Inhibition [%] | Z score
67 | CO[C@H]1CN(c2nc(-c3cc4ccccc4s3)ccc2C(=O)O)CC[C@H]1N | -14 | 1.83
68 | CC(C)c1nc(CC(=O)N[C@@H](C)CN2CCOCC2)cs1 | 3 | -0.52
69 | CCN(CC)c1ccccc1COC(=O)[C@H]1CCc2cn[nH]c2C1 | -9 | 1.49
70 | FC1(F)CC(Cn2cc(Cl)cn2)C1 | -7 | 1.36
71 | O=C(NCCc1cn[nH]c1)N1CCOCC1C1CCCO1 (stereo not given) | -1 | 0.15
72 | CCCN1CCN(C(=O)c2cccc(N(C)C)c2)CC1 | -1 | 0.14
73 | Cc1cnc(C(=O)OCc2coc(-c3ccc(F)cc3)n2)cn1 | -4 | 0.53
74 | CCOC(=O)NC(=O)C(=CNc1cccc(Cl)c1)C(=O)NC(=O)OCC | -35 | 4.1
75 | CC(=O)c1ccc(CNC(=O)c2cc(C(C)C)on2)nc1C | 3 | -0.29
76 | O=S(=O)(N[C@@]12C[C@@H]1COC21CCC1)c1ccccc1 | -10 | 1.93
77 | Cc1[nH]c2ccccc2c1C1=CC(c2ccccc2)=NN=C(c2ccccc2)C1 | -11 | 1.74
78 | O=C(CC1CC1)NCC[C@H](O)c1cccc(Cl)c1 | -17 | 2.15
79 | O=S(=O)(N[C@H]1CCc2ncnn2C1)c1ccoc1 | -2 | 0.41
80 | Cc1c(C)[n+](O)c([C@@H](CC(=O)O)c2ccc(-c3nc4ccccc4s3)o2)n1C | -8 | 1
81 | CC(C)N1CCN(C[C@]2(O)CCCN(CC(C)(C)C)C2=O)CC1 | -10 | 1.29
82 | Cc1nc(-c2ccc(N3CCC(NCCCn4ccnc4)CC3)cc2)cs1 | 40 | -6.92
83 | CC[C@@H](CNC(=O)CCc1cnn(C)n1)Oc1cccc(Cl)c1 | -2 | 0.25
84 | Cc1cc(C)cc(C(O)CNC(=O)NCC(C)Cn2ccnc2C)c1 (stereo not given) | -6 | 0.86
85 | CO[C@H](C(=O)N1CCN(C(=O)c2ccccc2)CC1)c1ccccc1 | 0 | -0.02
